# Laboratory results reported in PMC9911399, “Two distinct binding modes provide the RNA-binding protein RbFox with extraordinary sequence specificity”.
# Positions count from the first letter of the chain named. This is one part of the list.
# T1: RBFOX1 RRM (Homo sapiens, UniProt Q9NWB1 109-208)
# T1 sequence: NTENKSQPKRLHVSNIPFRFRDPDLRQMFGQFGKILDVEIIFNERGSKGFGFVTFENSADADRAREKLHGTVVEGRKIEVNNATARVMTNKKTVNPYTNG
# B1: GGGCGAC (DNA:RNA)
# RNA: GGGAGACCGGAAUUCAGAUUGUCCGGGCGACUUAAAUCCCGUCGUAGCCACCA
# DNA 1: CAATCTGAATTCCGGTCTCCC
# DNA 2: TGGTGGCTACGACGGGATT
# B2: AGAACAU (DNA:RNA)
# RNA: B1 RNA with G25A, G27A, C28A, G29C, C31U
# DNA 1: CAATCTGAATTCCGGTCTCCC
# DNA 2: TGGTGGCTACGACGGGATT
# B3: UGCCCAU (DNA:RNA)
# RNA: B1 RNA with G25U, G27C, G29C, C31U
# DNA 1: CAATCTGAATTCCGGTCTCCC
# DNA 2: TGGTGGCTACGACGGGATT
# B4: GCGGUCU (DNA:RNA)
# RNA: B1 RNA with G26C, C28G, G29U, A30C, C31U
# DNA 1: CAATCTGAATTCCGGTCTCCC
# DNA 2: TGGTGGCTACGACGGGATT
# B5: AGCCGCA (DNA:RNA)
# RNA: B1 RNA with G25A, G27C, A30C, C31A
# DNA 1: CAATCTGAATTCCGGTCTCCC
# DNA 2: TGGTGGCTACGACGGGATT
# B6: GGUACAG (DNA:RNA)
# RNA: B1 RNA with G27U, C28A, G29C, C31G
# DNA 1: CAATCTGAATTCCGGTCTCCC
# DNA 2: TGGTGGCTACGACGGGATT
# B7: CUAAUAA (DNA:RNA)
# RNA: B1 RNA with G25C, G26U, G27A, C28A, G29U, C31A
# DNA 1: CAATCTGAATTCCGGTCTCCC
# DNA 2: TGGTGGCTACGACGGGATT
# B8: UGAAUGG (DNA:RNA)
# RNA: B1 RNA with G25U, G27A, C28A, G29U, A30G, C31G
# DNA 1: CAATCTGAATTCCGGTCTCCC
# DNA 2: TGGTGGCTACGACGGGATT
# B9: UUUCUCU (DNA:RNA)
# RNA: B1 RNA with G25U, G26U, G27U, G29U, A30C, C31U
# DNA 1: CAATCTGAATTCCGGTCTCCC
# DNA 2: TGGTGGCTACGACGGGATT
# B10: GUUCAGA (DNA:RNA)
# RNA: B1 RNA with G26U, G27U, G29A, A30G, C31A
# DNA 1: CAATCTGAATTCCGGTCTCCC
# DNA 2: TGGTGGCTACGACGGGATT
# B11: GACUGAG (DNA:RNA)
# RNA: B1 RNA with G26A, G27C, C28U, C31G
# DNA 1: CAATCTGAATTCCGGTCTCCC
# DNA 2: TGGTGGCTACGACGGGATT
# B12: UGUUGCC (DNA:RNA)
# RNA: B1 RNA with G25U, G27U, C28U, A30C
# DNA 1: CAATCTGAATTCCGGTCTCCC
# DNA 2: TGGTGGCTACGACGGGATT
# B13: CCCGUAC (DNA:RNA)
# RNA: B1 RNA with G25C, G26C, G27C, C28G, G29U
# DNA 1: CAATCTGAATTCCGGTCTCCC
# DNA 2: TGGTGGCTACGACGGGATT
# B14: UUCCGCU (DNA:RNA)
# RNA: B1 RNA with G25U, G26U, G27C, A30C, C31U
# DNA 1: CAATCTGAATTCCGGTCTCCC
# DNA 2: TGGTGGCTACGACGGGATT
# B15: CAGUUUC (DNA:RNA)
# RNA: B1 RNA with G25C, G26A, C28U, G29U, A30U
# DNA 1: CAATCTGAATTCCGGTCTCCC
# DNA 2: TGGTGGCTACGACGGGATT
# B16: CUGAGUU (DNA:RNA)
# RNA: B1 RNA with G25C, G26U, C28A, A30U, C31U
# DNA 1: CAATCTGAATTCCGGTCTCCC
# DNA 2: TGGTGGCTACGACGGGATT
# B17: CAUUAGU (DNA:RNA)
# RNA: GGGAGACCGGAAUUCAGAUUGUCCCAUUAGUUUAAAUCCCGUCGUAGCCACCA
# DNA 1: CAATCTGAATTCCGGTCTCCC
# DNA 2: TGGTGGCTACGACGGGATT
# B18: AGCAUCG (DNA:RNA)
# RNA: B1 RNA with G25A, G27C, C28A, G29U, A30C, C31G
# DNA 1: CAATCTGAATTCCGGTCTCCC
# DNA 2: TGGTGGCTACGACGGGATT
# B19: UACAUAU (DNA:RNA)
# RNA: B17 RNA with C25U, U27C, U28A, A29U, G30A
# DNA 1: CAATCTGAATTCCGGTCTCCC
# DNA 2: TGGTGGCTACGACGGGATT
# B20: UUGGGUA (DNA:RNA)
# RNA: B1 RNA with G25U, G26U, C28G, A30U, C31A
# DNA 1: CAATCTGAATTCCGGTCTCCC
# DNA 2: TGGTGGCTACGACGGGATT
# Target: T1, RBFOX1 RRM
# Test: EMSA; HiTS-Eq, 1 nM pool, 10 min; buffer printed only for the single-RNA assays: 10 mM Tris pH 7.5, 150 mM NaCl, 3.4 mM EDTA, 0.001% NP-40, 30 C
# Settings: tags: His6 N-terminal (pET28a); label: 5' 32P
# Procedure, shortened: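 A pool of RNA with 7 randomized nucleotides, 5′-radiolabelled and with DNA-annealed flanks, was equilibrated at 1 nM for 10 min in 50 µL with purified RbFox RRM, wild type or mutant, across increasing protein concentrations. Free RNA was separated by 8% native PAGE, excised, reverse-transcribed, barcoded by PCR and sequenced. Relative association constants were obtained from read-count changes of each RNA species versus the control reaction and normalised to the cognate motif.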
row,Binder,binding signal
1,B1,0.0078 KA relative to UGCAUGU
2,B2,0.00222 KA relative to UGCAUGU
3,B3,0.00564 KA relative to UGCAUGU
4,B4,0.0222 KA relative to UGCAUGU
5,B5,0.0125 KA relative to UGCAUGU
6,B6,0.00672 KA relative to UGCAUGU
7,B7,0.00115 KA relative to UGCAUGU
8,B8,0.0227 KA relative to UGCAUGU
9,B9,0.0126 KA relative to UGCAUGU
10,B10,0.0176 KA relative to UGCAUGU
11,B11,0.0217 KA relative to UGCAUGU
12,B12,0.0243 KA relative to UGCAUGU
13,B13,0.000243 KA relative to UGCAUGU
14,B14,0.00577 KA relative to UGCAUGU
15,B15,0.00996 KA relative to UGCAUGU
16,B16,0.0144 KA relative to UGCAUGU
17,B17,0.0065 KA relative to UGCAUGU
18,B18,0.0146 KA relative to UGCAUGU
19,B19,0.00103 KA relative to UGCAUGU
20,B20,0.0202 KA relative to UGCAUGU
